Measurements from paper PMC10806146.
Changes are numbered by the printed parent chain. In names and notes the source's numbering stands. No constants are given. Whether binding was seen depends on the method and setting. In cells and extracts the contact can be indirect. Some results given as binding are weak or reduced against the parent protein; the word gives no strength. For part of these data: Sequences can lack the tags named with a protein.

Protein sequences, listed by entry. Tags and fused reporters are not part of them.
UniProt Q99836: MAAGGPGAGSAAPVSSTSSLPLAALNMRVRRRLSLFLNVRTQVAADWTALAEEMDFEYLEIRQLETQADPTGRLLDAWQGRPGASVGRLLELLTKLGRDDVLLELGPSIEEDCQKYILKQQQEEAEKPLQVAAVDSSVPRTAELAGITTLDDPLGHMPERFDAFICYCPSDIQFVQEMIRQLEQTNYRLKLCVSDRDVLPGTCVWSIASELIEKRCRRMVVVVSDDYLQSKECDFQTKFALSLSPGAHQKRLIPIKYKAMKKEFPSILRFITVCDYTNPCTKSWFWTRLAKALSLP

Columns and labels:
IRAK-M W74A (human) [1] = molecular target: T1, IRAK-M W74A (human) (UniProt Q9Y616); assay: co-IP; IRAK-M WT or mutant co-expressed with IRAK-4-FLAG and MyD88-HA in 293T cells; IP with anti-IRAK-M 1F6 and protein A/G agarose; blots with anti-FLAG, anti-HA and anti-IRAK-M 4369
T1 sequence: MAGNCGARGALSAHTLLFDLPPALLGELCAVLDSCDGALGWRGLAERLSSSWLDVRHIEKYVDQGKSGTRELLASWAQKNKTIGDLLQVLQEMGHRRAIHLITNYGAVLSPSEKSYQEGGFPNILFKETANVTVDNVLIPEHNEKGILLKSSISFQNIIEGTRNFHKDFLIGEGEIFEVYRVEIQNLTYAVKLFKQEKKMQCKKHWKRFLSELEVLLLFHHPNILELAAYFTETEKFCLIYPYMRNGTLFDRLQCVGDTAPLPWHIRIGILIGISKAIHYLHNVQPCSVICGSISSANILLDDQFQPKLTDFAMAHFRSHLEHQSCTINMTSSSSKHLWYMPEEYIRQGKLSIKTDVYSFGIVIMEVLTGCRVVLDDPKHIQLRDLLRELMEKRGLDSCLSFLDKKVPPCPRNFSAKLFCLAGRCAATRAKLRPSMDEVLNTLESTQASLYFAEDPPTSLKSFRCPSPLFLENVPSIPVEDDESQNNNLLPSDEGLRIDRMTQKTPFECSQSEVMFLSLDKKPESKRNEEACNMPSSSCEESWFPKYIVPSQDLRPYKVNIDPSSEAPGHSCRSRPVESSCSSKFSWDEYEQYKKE

IRAK-M R97Q (human) [2] = molecular target: T2, IRAK-M R97Q (human) (UniProt Q9Y616); assay: as above
T2 sequence: T1 sequence with A74W, R97Q

[3] = molecular target: T3, interleukin-1 receptor associated kinase-M (IRAK-M), wild type (human) (UniProt Q9Y616); assay: as above
T3 sequence: T1 sequence with A74W

IRAK-M P478G (human) = molecular target: T4, IRAK-M P478G (human) (UniProt Q9Y616); assay: as above
T4 sequence: T1 sequence with A74W, P478G

IRAK-M Y105A (human) = molecular target: T5, IRAK-M Y105A (human) (UniProt Q9Y616); assay: as above
T5 sequence: T1 sequence with A74W, Y105A

[4] = molecular target: T3, interleukin-1 receptor associated kinase-M (IRAK-M), wild type (human); assay: co-IP; full-length IRAK-M (WT or mutant) co-expressed with its 526stop form in 293T cells (CRISPR control; also IRAK-1 KO); IP with 1F6, which recognises the end of the C-terminal domain; blot with anti-IRAK-M A5467
IRAK-M R97Q (human) [5] = molecular target: T2, IRAK-M R97Q (human); assay: as above
IRAK-M W74A (human) [6] = molecular target: T1, IRAK-M W74A (human); assay: as above
IRAK-M W74A (human) [7] = molecular target: T1, IRAK-M W74A (human); assay: co-IP; IRAK-M WT or mutant co-expressed with IRAK-4-FLAG and MyD88-HA in 293T cells; IP with anti-IRAK-M 1F6 and protein A/G agarose; blots with anti-FLAG, anti-HA and anti-IRAK-M 4369; remark: listed apart in the source

## MyD88-HA (from UniProt Q99836 1-296)
IRAK-M W74A (human) [1]
  binding: no binding
IRAK-M R97Q (human) [2]
  binding: binds
[3]
  binding: binds
IRAK-M P478G (human)
  binding: binds
IRAK-M Y105A (human)
  binding: binds

B1: IRAK-M K526Stop (domain or fragment, UniProt Q9Y616 1-525)
chain: MAGNCGARGALSAHTLLFDLPPALLGELCAVLDSCDGALGWRGLAERLSSSWLDVRHIEKYVDQGKSGTRELLWSWAQKNKTIGDLLQVLQEMGHRRAIHLITNYGAVLSPSEKSYQEGGFPNILFKETANVTVDNVLIPEHNEKGILLKSSISFQNIIEGTRNFHKDFLIGEGEIFEVYRVEIQNLTYAVKLFKQEKKMQCKKHWKRFLSELEVLLLFHHPNILELAAYFTETEKFCLIYPYMRNGTLFDRLQCVGDTAPLPWHIRIGILIGISKAIHYLHNVQPCSVICGSISSANILLDDQFQPKLTDFAMAHFRSHLEHQSCTINMTSSSSKHLWYMPEEYIRQGKLSIKTDVYSFGIVIMEVLTGCRVVLDDPKHIQLRDLLRELMEKRGLDSCLSFLDKKVPPCPRNFSAKLFCLAGRCAATRAKLRPSMDEVLNTLESTQASLYFAEDPPTSLKSFRCPSPLFLENVPSIPVEDDESQNNNLLPSDEGLRIDRMTQKTPFECSQSEVMFLSLDKKPES
[4]
  binding: binds

B2: IRAK-M R97Q/526stop (domain or fragment, UniProt Q9Y616 1-525)
chain: B1 chain with R97Q
IRAK-M R97Q (human) [5]
  binding: binds

B3: IRAK-M W74A/526stop (domain or fragment, UniProt Q9Y616 1-525)
chain: B1 chain with W74A
IRAK-M W74A (human) [6]
  binding: binds

B4: IRAK-4-FLAG (protein, UniProt Q9NWZ3 1-460)
chain: MNKPITPSTYVRCLNVGLIRKLSDFIDPQEGWKKLAVAIKKPSGDDRYNQFHIRRFEALLQTGKSPTSELLFDWGTTNCTVGDLVDLLIQNEFFAPASLLLPDAVPKTANTLPSKEAITVQQKQMPFCDKDRTLMTPVQNLEQSYMPPDSSSPENKSLEVSDTRFHSFSFYELKNVTNNFDERPISVGGNKMGEGGFGVVYKGYVNNTTVAVKKLAAMVDITTEELKQQFDQEIKVMAKCQHENLVELLGFSSDGDDLCLVYVYMPNGSLLDRLSCLDGTPPLSWHMRCKIAQGAANGINFLHENHHIHRDIKSANILLDEAFTAKISDFGLARASEKFAQTVMTSRIVGTTAYMAPEALRGEITPKSDIYSFGVVLLEIITGLPAVDEHREPQLLLDIKEEIEDEEKTIEDYIDKKMNDADSTSVEAMYSVASQCLHEKKNKRPDIKKVQQLLQEMTAS
IRAK-M W74A (human) [7]
  binding: no binding
